PMC12820563
This is one part of the list. The list includes weakly bound sequences.

Target: T1, MBP-FoxP3dN (UniProt Q99JB6)
T1 sequence: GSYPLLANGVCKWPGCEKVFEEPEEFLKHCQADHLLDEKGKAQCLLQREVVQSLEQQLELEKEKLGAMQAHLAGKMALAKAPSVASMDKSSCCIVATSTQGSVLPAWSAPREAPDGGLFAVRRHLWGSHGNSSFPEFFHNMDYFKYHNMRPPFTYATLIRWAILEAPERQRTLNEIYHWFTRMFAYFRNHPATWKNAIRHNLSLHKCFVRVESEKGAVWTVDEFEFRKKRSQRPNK
Assay: PD-seq (MBP pull-down with sequencing)
Settings: 20 mM Tris-HCl pH 7.5, 100 mM NaCl, 1.5 mM MgCl2, 0.4 uM protein, 0.1 uM dsDNA library, 30 min, room temperature, amylose pull-down; high values mean tight binding; double strand, one strand shown

Sequence	binding signal (RPM ratio (pull-down/input))
GATGATTGTTCTCCCAGCTGATGAATTCTTATAGTCGAGTAAACAAATTTTCCTAATCTTTCTGTTCAAGCGCCATCTAC	0.248
GATGATTGTTCTCCCAGCTGATGAATTTCGTACCTCGAGTAAACAAATTTTCCTAATCTTTCTGTTCAAGCGCCATCTAC	0.775
GATGATTGTTCTCCCAGCTGATGAATTCTCGATTTCGAGTAAACAAATTTTCCTAATCTTTCTGTTCAAGCGCCATCTAC	0.367
GATGATTGTTCTCCCAGCTGATGAATTCTATCATTCGAGTAAACAAATTTTCCTAATCTTTCTGTTCAAGCGCCATCTAC	1.72
GATGATTGTTCTCCCAGCTGATGAATTTTCATCATCGAGTAAACAAATTTTCCTAATCTTTCTGTTCAAGCGCCATCTAC	0.474
GATGATTGTTCTCCCAGCTGATGAATTTAACGAATCGAGTAAACAAATTTTCCTAATCTTTCTGTTCAAGCGCCATCTAC	0.242
GATGATTGTTCTCCCAGCTGATGAATTTGAACTATCGAGTAAACAAATTTTCCTAATCTTTCTGTTCAAGCGCCATCTAC	0.365
GATGATTGTTCTCCCAGCTGATGAATTCGGCTGCTCGAGTAAACAAATTTTCCTAATCTTTCTGTTCAAGCGCCATCTAC	0.484
GATGATTGTTCTCCCAGCTGATGAATTCTTGGATTCGAGTAAACAAATTTTCCTAATCTTTCTGTTCAAGCGCCATCTAC	0.229
GATGATTGTTCTCCCAGCTGATGAATTCGACAAGTCGAGTAAACAAATTTTCCTAATCTTTCTGTTCAAGCGCCATCTAC	0.255
GATGATTGTTCTCCCAGCTGATGAATTGAGTTAATCGAGTAAACAAATTTTCCTAATCTTTCTGTTCAAGCGCCATCTAC	0.369
GATGATTGTTCTCCCAGCTGATGAATTCATGGTCTCGAGTAAACAAATTTTCCTAATCTTTCTGTTCAAGCGCCATCTAC	0.77
GATGATTGTTCTCCCAGCTGATGAATTTTTTGAATCGAGTAAACAAATTTTCCTAATCTTTCTGTTCAAGCGCCATCTAC	0.229
GATGATTGTTCTCCCAGCTGATGAATTTCCCCAATCGAGTAAACAAATTTTCCTAATCTTTCTGTTCAAGCGCCATCTAC	0.258
GATGATTGTTCTCCCAGCTGATGAATTTTTGTAGTCGAGTAAACAAATTTTCCTAATCTTTCTGTTCAAGCGCCATCTAC	0.53
GATGATTGTTCTCCCAGCTGATGAATTGTAATAGTCGAGTAAACAAATTTTCCTAATCTTTCTGTTCAAGCGCCATCTAC	1.05
GATGATTGTTCTCCCAGCTGATGAATTGATCATGTCGAGTAAACAAATTTTCCTAATCTTTCTGTTCAAGCGCCATCTAC	0.656
GATGATTGTTCTCCCAGCTGATGAATTCCTGTAGTCGAGTAAACAAATTTTCCTAATCTTTCTGTTCAAGCGCCATCTAC	0.369
GATGATTGTTCTCCCAGCTGATGAATTGCAATAGTCGAGTAAACAAATTTTCCTAATCTTTCTGTTCAAGCGCCATCTAC	1.23
GATGATTGTTCTCCCAGCTGATGAATTCATAAAATCGAGTAAACAAATTTTCCTAATCTTTCTGTTCAAGCGCCATCTAC	0.176
GATGATTGTTCTCCCAGCTGATGAATTTGTCGGGTCGAGTAAACAAATTTTCCTAATCTTTCTGTTCAAGCGCCATCTAC	3.54

Sequence	binding signal (RPM ratio (pull-down/input))
GATGATTGTTCTCCCAGCTGATGAATTAACCCAATCGAGTAAACAAATTTTCCTAATCTTTCTGTTCAAGCGCCATCTAC	0.279
GATGATTGTTCTCCCAGCTGATGAATTGGCTAATTCGAGTAAACAAATTTTCCTAATCTTTCTGTTCAAGCGCCATCTAC	0.321
GATGATTGTTCTCCCAGCTGATGAATTGTACAGTTCGAGTAAACAAATTTTCCTAATCTTTCTGTTCAAGCGCCATCTAC	0.453
GATGATTGTTCTCCCAGCTGATGAATTTGTTAAGTCGAGTAAACAAATTTTCCTAATCTTTCTGTTCAAGCGCCATCTAC	2.25
GATGATTGTTCTCCCAGCTGATGAATTGGGTTCATCGAGTAAACAAATTTTCCTAATCTTTCTGTTCAAGCGCCATCTAC	0.504
GATGATTGTTCTCCCAGCTGATGAATTCTACCTATCGAGTAAACAAATTTTCCTAATCTTTCTGTTCAAGCGCCATCTAC	0.384
GATGATTGTTCTCCCAGCTGATGAATTCGGCGGATCGAGTAAACAAATTTTCCTAATCTTTCTGTTCAAGCGCCATCTAC	0.282
GATGATTGTTCTCCCAGCTGATGAATTATGGGTATCGAGTAAACAAATTTTCCTAATCTTTCTGTTCAAGCGCCATCTAC	0.849
GATGATTGTTCTCCCAGCTGATGAATTGCTTAAGTCGAGTAAACAAATTTTCCTAATCTTTCTGTTCAAGCGCCATCTAC	0.396
GATGATTGTTCTCCCAGCTGATGAATTATCTTATTCGAGTAAACAAATTTTCCTAATCTTTCTGTTCAAGCGCCATCTAC	0.463
GATGATTGTTCTCCCAGCTGATGAATTCCTTCCATCGAGTAAACAAATTTTCCTAATCTTTCTGTTCAAGCGCCATCTAC	0.243
GATGATTGTTCTCCCAGCTGATGAATTGGCTCACTCGAGTAAACAAATTTTCCTAATCTTTCTGTTCAAGCGCCATCTAC	0.347
GATGATTGTTCTCCCAGCTGATGAATTTTGCTCTTCGAGTAAACAAATTTTCCTAATCTTTCTGTTCAAGCGCCATCTAC	0.48
GATGATTGTTCTCCCAGCTGATGAATTAATTGTTTCGAGTAAACAAATTTTCCTAATCTTTCTGTTCAAGCGCCATCTAC	3.75
GATGATTGTTCTCCCAGCTGATGAATTAACTGCATCGAGTAAACAAATTTTCCTAATCTTTCTGTTCAAGCGCCATCTAC	0.97
GATGATTGTTCTCCCAGCTGATGAATTTGCGGCGTCGAGTAAACAAATTTTCCTAATCTTTCTGTTCAAGCGCCATCTAC	1.05
GATGATTGTTCTCCCAGCTGATGAATTAACATATTCGAGTAAACAAATTTTCCTAATCTTTCTGTTCAAGCGCCATCTAC	0.57
GATGATTGTTCTCCCAGCTGATGAATTTGCTCAGTCGAGTAAACAAATTTTCCTAATCTTTCTGTTCAAGCGCCATCTAC	0.341
GATGATTGTTCTCCCAGCTGATGAATTTACAAATTCGAGTAAACAAATTTTCCTAATCTTTCTGTTCAAGCGCCATCTAC	0.476
GATGATTGTTCTCCCAGCTGATGAATTCGGGACTTCGAGTAAACAAATTTTCCTAATCTTTCTGTTCAAGCGCCATCTAC	0.391
GATGATTGTTCTCCCAGCTGATGAATTGACATTCTCGAGTAAACAAATTTTCCTAATCTTTCTGTTCAAGCGCCATCTAC	0.556

Sequence	binding signal (RPM ratio (pull-down/input))
GATGATTGTTCTCCCAGCTGATGAATTATGATCCTCGAGTAAACAAATTTTCCTAATCTTTCTGTTCAAGCGCCATCTAC	0.648
GATGATTGTTCTCCCAGCTGATGAATTCCCAGCCTCGAGTAAACAAATTTTCCTAATCTTTCTGTTCAAGCGCCATCTAC	0.301
GATGATTGTTCTCCCAGCTGATGAATTACTACGGTCGAGTAAACAAATTTTCCTAATCTTTCTGTTCAAGCGCCATCTAC	0.315
GATGATTGTTCTCCCAGCTGATGAATTAGGAGGGTCGAGTAAACAAATTTTCCTAATCTTTCTGTTCAAGCGCCATCTAC	0.318
GATGATTGTTCTCCCAGCTGATGAATTCGCAGTTTCGAGTAAACAAATTTTCCTAATCTTTCTGTTCAAGCGCCATCTAC	0.526
GATGATTGTTCTCCCAGCTGATGAATTAGGCTATTCGAGTAAACAAATTTTCCTAATCTTTCTGTTCAAGCGCCATCTAC	1.58
GATGATTGTTCTCCCAGCTGATGAATTTCAATCTTCGAGTAAACAAATTTTCCTAATCTTTCTGTTCAAGCGCCATCTAC	0.352
GATGATTGTTCTCCCAGCTGATGAATTGGGATGATCGAGTAAACAAATTTTCCTAATCTTTCTGTTCAAGCGCCATCTAC	0.464
GATGATTGTTCTCCCAGCTGATGAATTGTGGCTATCGAGTAAACAAATTTTCCTAATCTTTCTGTTCAAGCGCCATCTAC	1.59
GATGATTGTTCTCCCAGCTGATGAATTCTGCCGCTCGAGTAAACAAATTTTCCTAATCTTTCTGTTCAAGCGCCATCTAC	2.24
GATGATTGTTCTCCCAGCTGATGAATTCCATCGATCGAGTAAACAAATTTTCCTAATCTTTCTGTTCAAGCGCCATCTAC	0.359
GATGATTGTTCTCCCAGCTGATGAATTCCACATGTCGAGTAAACAAATTTTCCTAATCTTTCTGTTCAAGCGCCATCTAC	0.45
GATGATTGTTCTCCCAGCTGATGAATTTCCATATTCGAGTAAACAAATTTTCCTAATCTTTCTGTTCAAGCGCCATCTAC	0.34
GATGATTGTTCTCCCAGCTGATGAATTTCCACAATCGAGTAAACAAATTTTCCTAATCTTTCTGTTCAAGCGCCATCTAC	0.373
GATGATTGTTCTCCCAGCTGATGAATTGCAGAACTCGAGTAAACAAATTTTCCTAATCTTTCTGTTCAAGCGCCATCTAC	0.475
GATGATTGTTCTCCCAGCTGATGAATTTAACAATTCGAGTAAACAAATTTTCCTAATCTTTCTGTTCAAGCGCCATCTAC	0.437
GATGATTGTTCTCCCAGCTGATGAATTGTCGCTATCGAGTAAACAAATTTTCCTAATCTTTCTGTTCAAGCGCCATCTAC	0.891
GATGATTGTTCTCCCAGCTGATGAATTCGCGGTTTCGAGTAAACAAATTTTCCTAATCTTTCTGTTCAAGCGCCATCTAC	0.585
GATGATTGTTCTCCCAGCTGATGAATTGTACGCTTCGAGTAAACAAATTTTCCTAATCTTTCTGTTCAAGCGCCATCTAC	0.577
GATGATTGTTCTCCCAGCTGATGAATTGTCAGCCTCGAGTAAACAAATTTTCCTAATCTTTCTGTTCAAGCGCCATCTAC	0.553
GATGATTGTTCTCCCAGCTGATGAATTTCTGGGTTCGAGTAAACAAATTTTCCTAATCTTTCTGTTCAAGCGCCATCTAC	0.245
